About 55 (5%) of roughly 1,200 compounds were called active. Another 15% or so got no clear call; they are omitted. Calls follow the shape of the dose curve; as a rule, active = well fitted inhibition curve with a large enough effect; inconclusive = small, poorly fitted or top-dose-only effect; inactive = no such curve, though single readings can be large or run the other way. The list shows a part of the results.
experiment: qHTS Assay to Find Inhibitors of Chronic Active B-Cell Receptor Signaling: Hit Validation in Renilla Reporter Assay; conditions: TMD8 IkB-Renilla luciferase reporter, NF-kB signaling; series mostly up to 57.5 µM; activity change, negative = inhibition: at the top concentration; also: nearly all actives have a fitted effect of over 70% in size
Procedure, shortened: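 Dual-Glo luminescence read-out of constitutively expressed IkB-Photinus/Renilla luciferase reporters in ABC-DLBCL lines, used to retest primary hits; reporter enzymes differ from the click beetle luciferases used in the primary screen.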
% is scaled to controls: 0 for no effect and ±100 for the full control effect; potency is read from the fitted curve at half-maximal effect.

| SMILES | activity change, negative = inhibition | Potency |
| --- | --- | --- |
| CNC(=O)[C@H]1O[C@@H](n2cnc3c(NCc4cccc(I)c4)ncnc32)[C@H](O)[C@@H]1O | inactive: -6.32% |  |
| C[C@]12CC[C@H]3C(=CCc4cc(O)ccc43)[C@@H]1CCC2=O | inactive: -24.3% |  |
| CCOCCOC(=O)c1[nH]c2c(c1C)C(=O)CC(c1ccccc1)C2 (stereo not given) | inactive: 0.538% |  |
| COc1ccc(OC)c(Nc2c3c(nc4ccccc24)CCC3)c1 | inactive: -24.8% |  |
| COC(=O)c1cn(C(=O)c2ccc(OC)cc2)c2ccccc12 | inactive: -0.417% |  |
| CCn1c(SCC(=O)c2ccc(Cl)cc2)nnc1C(C)C | inactive: -4.83% |  |
| COc1ccc(S(=O)(=O)Nc2ccc3c(c2)n(C)c(=O)n3C)cc1F | inactive: 18.8% |  |
| Cc1ccc(C(=O)c2cc([N+](=O)[O-])ccc2N2CCCCC2)c(C)c1 | inactive: -15.6% |  |
| O=C(Cc1ccc(-n2c(=O)c3ccccc3n(Cc3ccccc3Cl)c2=O)cc1)NCC1CCCO1 (stereo not given) | inactive: -0.0877% |  |
| O=C(COc1ccc(Oc2ccccc2)cc1)NCc1cn2ccccc2n1 | inactive: 6.84% |  |
| COc1ccc(/C(C)=N/Nc2ncc(Cl)cc2Cl)c(O)c1 | inactive: -0.249% |  |
| Cc1ccc(S(=O)(=O)N2CCN(C(=O)CSc3n[nH]c(N)n3)CC2)c(C)c1 | inactive: -2.9% |  |
| CCC(C)N(C(=O)COC(=O)c1cc([N+](=O)[O-])ccc1N1CCOCC1)C1CCS(=O)(=O)C1 (stereo not given) | inactive: 2.51% |  |
| Cc1ccc(NS(=O)(=O)c2ccc(-c3cnc(C4CC4)o3)cc2)c(C)c1 | inactive: 5.35% |  |
| Cc1noc(C)c1COc1ccc(CC(=O)NCc2ccccc2)cc1 | inactive: -14% |  |
| Cc1ccc(C#N)c(SCc2ccccc2[N+](=O)[O-])n1 | inactive: 2.11% |  |
| CC(NC(=O)c1ccc(S(=O)(=O)NCc2ccco2)cc1)c1ccc(F)cc1 (stereo not given) | inactive: 23.2% |  |
| Cn1c(=O)n(Cc2ccccc2Cl)c2ccccc21 | inactive: 7.35% |  |
| COc1ccccc1NC(=O)Cn1nnc(C(=O)NCc2cccs2)c1N | inactive: 5.14% |  |
| COC(=O)C1=CN(Cc2ccc(OC)c(OC)c2)C=C(C(=O)OC)C1c1cccc(O)c1 | inactive: 2.18% |  |
| NC(=O)c1c(NC(=O)CSc2nc(N)cc(=O)[nH]2)sc2c1CCCC2 | inactive: -13.8% |  |
| CC(=O)[C@H]1CC[C@H]2[C@@H]3C[C@H](C)C4=CC(=O)CC[C@]4(C)[C@H]3[C@@H](O)C[C@]12C | inactive: -2.35% |  |
| CCC(=O)Nc1nonc1-c1nc2ccccc2n1Cc1cccc2ccccc12 | inactive: -1.91% |  |
| COc1ccc(-c2noc(CSc3nc(N)c(-c4ccccc4)c(=O)[nH]3)n2)cc1OC | inactive: -12.8% |  |
| Cc1ccc(Oc2ccc(-c3nc(N)nc(N)n3)cc2)cc1C | inactive: -28.8% |  |
| CCCC(=O)OCCNc1cc(Sc2nccn2C)c2nonc2c1[N+](=O)[O-] |  | active: 3.79 µM |
| C=CCn1c(SCC(=O)Nc2cccc(S(N)(=O)=O)c2)nc2sc(C)c(C)c2c1=O | inactive: 5.08% |  |

| SMILES | activity change, negative = inhibition | Potency |
| --- | --- | --- |
| Cc1cccc(NS(=O)(=O)c2ccc(C3CCCCC3)cc2)n1 |  | active: 13.5 µM |
| CCOc1cc(C(=O)N(C)CC(=O)Nc2cccc3ccccc23)ccc1OC | inactive: -0.768% |  |
| CNC(=S)N/N=C(\C)c1ccc2c(c1)OCCO2 | inactive: -1.41% |  |
| COc1cc(C2C(C#N)=C(N)Oc3cc(N)ccc32)cc(OC)c1OC (stereo not given) | inactive: -28.5% |  |
| Cc1cc(=O)oc2cc(OCC3CC(c4ccccc4Cl)=NO3)ccc12 (stereo not given) | inactive: -6.64% |  |
| CNC(=S)N/N=C/c1ccco1 | inactive: 3.29% |  |
| CNC(=S)N/N=C(\C)c1ccc(Cl)c(Cl)c1 | inactive: 7.41% |  |
| COc1cccc(-c2nnc(SCC(=O)Nc3cc(C)on3)o2)c1 | inactive: 4.37% |  |
| COc1ccc(/C=C/C(=O)Nc2cc(S(=O)(=O)N3CCOCC3)ccc2OC)cc1 | inactive: -11% |  |
| COc1ccccc1CNS(=O)(=O)c1ccc(-c2cnc(C3CC3)o2)cc1 | inactive: 23.8% |  |
| Nc1cc(=O)[nH]c(SCC(=O)Nc2cc(Cl)cc(Cl)c2)n1 | inactive: 19% |  |
| C[C@]12C=CC(=O)C=C1CC[C@@H]1[C@@H]2[C@@H](O)C[C@@]2(C)[C@H]1CC[C@]2(O)C(=O)COC(=O)CCC(=O)O | inactive: 4.63% |  |
| COc1ccc(/C=N\NC(=O)c2c(C)nc3ccc(Br)cn23)cc1 | inactive: -14.5% |  |
| Cc1cc(C)c2nc(SCC(=O)N3CC(=O)Nc4ccccc43)c(C#N)cc2c1 | inactive: -6.04% |  |
| COc1cc(OC)cc(C(=O)N/N=C(\C)CC(=O)Nc2ccccn2)c1 | inactive: -4.71% |  |
| COc1ccc(NCC(=O)n2c(C)c(C)c3ccccc32)cc1 | inactive: 3.6% |  |
| COc1ccccc1-n1cnc2cc(NCc3cccs3)ccc21 | inactive: 1.53% |  |
| Cc1cc(C)nc(SCc2ccc(C(=O)N/N=C/c3cccnc3)cc2)n1 | inactive: 4.12% |  |
| COc1ccc(S(=O)(=O)N2CCCCC2)cc1NC(=O)c1ccc(OC)c(OC)c1 | inactive: 3.52% |  |
| COc1cc2c(cc1OC)-c1cc(NC3CCCCC3)nc(=O)n1CC2 | inactive: -8.08% |  |
| O=C(COC(=O)Cc1ccc(-c2ccccc2)cc1)NCc1ccccc1 | inactive: 0.885% |  |
| CCOc1ccc(NC(=O)c2cc(OC)nc3ccccc23)cc1 | inactive: -0.0858% |  |
| COc1cccc(/C=C/C(=O)Nc2cc(S(=O)(=O)N3CCOCC3)ccc2OC)c1 | inactive: 1.3% |  |
| CC(C)(C)NNC(=S)Nc1cccc(F)c1 | inactive: 4.4% |  |
| Cc1ccc(-c2ccccc2NC(=O)CS(=O)CC(=O)Nc2ccc(C)c(Cl)c2)o1 (stereo not given) | inactive: 14.6% |  |
| COc1ccc(/C(C)=N/Nc2nc3ccccc3nc2C)cc1OC | inactive: -3.76% |  |
| O=C(COc1ccccc1-c1ccccc1)N/N=C/c1ccc2ccccc2c1 | inactive: -0.205% |  |

| SMILES | activity change, negative = inhibition | Potency |
| --- | --- | --- |
| CCOc1ccccc1/C=N/Nc1nc2c(N)ncnc2n1[C@H]1O[C@@H](CO)[C@H](O)[C@@H]1O | inactive: -7.31% |  |
| O=C(CN1CCCc2ccccc21)N/N=C/c1ccccc1O | inactive: 8.8% |  |
| CCCCC(=O)O[C@]1(C(=O)CO)CC[C@H]2[C@@H]3CCC4=CC(=O)CC[C@]4(C)[C@H]3[C@@H](O)C[C@@]21C | inactive: -1.63% |  |
| Cc1cccc(OCCCC(=O)NNC(=O)c2cccc(N(C)C)c2)c1 | inactive: 9.82% |  |
| CCOc1ccc2nc(NS(=O)(=O)Cc3ccccc3)sc2c1 | inactive: -25.9% |  |
| Cc1nc2c(C(F)(F)F)cccc2c2c1CCS2 | inactive: -5.86% |  |
| COc1ccc(/C=C/c2ccncc2)cc1OC | inactive: 1.23% |  |
| C=CCNC(=S)N/N=C/c1ccc(C(C)(C)C)cc1 | inactive: -3.61% |  |
| Cc1ccc(NC(=S)NNC(C)(C)C)cc1 | inactive: 17.6% |  |
| COc1cc2c(cc1OC)C(c1cc(C)ccc1C)CC(=O)N2 (stereo not given) | inactive: 3.36% |  |
| N#CC(C(=S)Nc1ccccc1)c1nc2ccccc2[nH]1 (stereo not given) | inactive: -4.69% |  |
| CC1=Nc2cc(C(=O)NCCCOC(C)C)ccc2Sc2ccc(C)cc21 | inactive: 20.7% |  |
| COc1ccc(/C=N/NC(=O)c2[nH]c3ccc(Br)cc3c2-c2ccccc2)c(C(=O)O)c1OC | inactive: -2.12% |  |
| CCOC(=O)c1ccccc1NS(=O)(=O)c1ccc(OCC)cc1 | inactive: 22.1% |  |
| CCCN1C(=O)C(=O)c2cc(Cl)ccc21 | inactive: 0.504% |  |
| CCN(c1ccccc1)S(=O)(=O)c1ccc(C(=O)NC2CCN(Cc3ccccc3)CC2)cc1 | inactive: -5.33% |  |
| CC1=CC(C)(C)N(S(=O)(=O)c2ccc(C)cc2)c2cc(C)ccc21 | inactive: -7.09% |  |
| COc1cc2c(c(OC)c1OC)-c1ccc(OC)c(=O)cc1[C@@H](NC(C)=O)CC2 | inactive: -10.9% |  |
| O=[N+]([O-])c1cc(O)c2ncccc2c1 | inactive: -17.5% |  |
| O=C(Nc1ccc([N+](=O)[O-])cc1)Nc1ccon1 | inactive: -10.3% |  |
| CC(C)(C)NC(=S)N/N=C/c1cccnc1 | inactive: 1.99% |  |
| COc1cc(C(c2sc3nc(C)nn3c2O)N2CCN(c3ccccc3)CC2)cc(OC)c1OC (stereo not given) | inactive: 10.5% |  |
| COc1cc(C(=O)Nc2ccc(C)cc2)c2ccccc2n1 | inactive: -11.4% |  |
| COc1cc(C(=O)N/N=C(\C)c2ccc3c(c2)OCO3)cc(OC)c1OC | inactive: 1.79% |  |
| O=C(COc1ccccc1-c1ccccc1)NN=C1CCCC1 | inactive: 4.23% |  |
| CSc1nc(N(C)NC(=O)c2ccc(Cl)cc2)c2ccccc2n1 | inactive: -26.1% |  |
| Cc1ccccc1NC(=S)c1ccc2ccccc2n1 | inactive: 15.7% |  |

| SMILES | activity change, negative = inhibition | Potency |
| --- | --- | --- |
| CCOc1ccc(N(CC(=O)Nc2ccccc2OC)S(=O)(=O)c2ccccc2)cc1 | inactive: 1.08% |  |
| COc1ccc(NS(=O)(=O)c2cc(NC(=O)CNC(=O)c3cccc(OC)c3)ccc2C)cc1 | inactive: 16.9% |  |
| CCOc1ccc(C(=O)c2cc([N+](=O)[O-])ccc2N2CCOCC2)cc1 | inactive: -15.7% |  |
| Nc1ccc(C(=O)n2c3ccccc3c3ccccc32)cc1 | inactive: -2.47% |  |
| COc1ccc(S(=O)(=O)Nc2cc3c(C(C)=O)c(C)oc3c3ccccc23)cc1 | inactive: 24.7% |  |
| COc1ccc(-c2c/c(=N\c3nc(-c4ccccc4)c(C)s3)c3ccccc3o2)cc1O | inactive: -3.81% |  |
| COc1ccc(C)cc1NS(=O)(=O)c1ccc(-c2cnc(C3CC3)o2)cc1 | inactive: 22.8% |  |
| COc1ccc(OC)c(C(=O)COC(=O)c2[nH]c(C)c(C(C)=O)c2C)c1 | inactive: 7.49% |  |
| Cc1ccc2[nH]c(C(=O)NN=C3CCCCC3)c(-c3ccccc3)c2c1 | inactive: -4.31% |  |
| COc1ccc(/C=N/NC(=O)c2[nH]c3ccc(Br)cc3c2-c2ccccc2)cc1 | inactive: -15% |  |
| Cc1cnn(CCC(=O)NNC(=S)NCC(C)C)c1 | inactive: 1.59% |  |
| CCCn1nc(Oc2nc(N(C)C)nc(N(C)C)n2)ccc1=O | inactive: -0.0736% |  |
| CCOCCOC(=O)c1[nH]c2c(c1C)C(=O)CC(c1cccs1)C2 (stereo not given) | inactive: -13% |  |
| CC1CCCN(c2ccc([N+](=O)[O-])cc2C(=O)c2ccccc2)C1 (stereo not given) | inactive: 1.52% |  |
| COc1ccccc1CNC(=O)CSc1ccc(C)cc1 | inactive: 3.24% |  |
| COc1ccc(C(=O)n2c(-c3ccco3)nc3ccccc32)cc1 | inactive: 3.66% |  |
| COc1cc(OC)c2c(-c3cccc(-c4ccc(O)cc4)c3)cc(=O)oc2c1 | inactive: -22.9% |  |
| Cn1c(=O)n(Cc2ccccc2Br)c2ccccc21 | inactive: 2.1% |  |
| CCN(c1ccccc1)S(=O)(=O)c1ccc(C(=O)NNC(=O)c2ccccc2F)cc1 | inactive: 1.63% |  |
| CN(C)c1ccc(-c2nn3c(-c4ccccc4Cl)nnc3s2)cc1 | inactive: 5.16% |  |
| CC(=O)c1ccsc1-c1c(C)cc2oc(=O)cc(-c3ccccc3)c2c1C | inactive: -0.446% |  |
| COC(=O)c1[nH]c2c(c1C)C(=O)CC(c1ccccc1)C2 (stereo not given) | inactive: -2.41% |  |
| Cc1noc(C)c1COc1ccc(C(=O)NCc2cccs2)cc1 | inactive: 4.11% |  |
| COc1ccc(/C=C/C(=O)c2cc(F)ccc2OC(=O)c2ccc(OC)c(OC)c2)cc1OC |  | active: 7.57 µM |
